Measurements reported in PubChem BioAssay AID743279 (National Center for Advancing Translational Sciences (NCATS), 2014).
Values joined by “and” are separate entries in the source; they are usually repeats but may differ in a detail not shown here. Equal entries are not always repeated. About 17,000 (4.7%) of roughly 360,000 compounds were called active. The shares of active, inactive and inconclusive entries below differ from those in the screen. Cut-off read from the data, not from the text of the source: active = activity change below about -50%; inconclusive = mostly about -30% to -49%; inactive = weaker than that. More than one record can exist for a structure, and the calls need not agree.

experiment: qHTS for Inhibitors of Inflammasome Signaling: IL-1-beta AlphaLISA Primary Screen; conditions: THP-1 LPS/ATP IL-1B secretion, 16 h; at 57.5 µM, stronger effect = lower value
Method in brief: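 Secreted IL-1B measured by AlphaLISA bead assay after 16 h compound exposure of THP-1 cells; compounds (final up to 57.5 uM) added 1 h before LPS (250 ng/mL) and ATP (1.25 mM) stimulation; lower signal means less secretion.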
% is set by controls: 0 for no effect and ±100 for the full control effect.

Activity change, -6.54% (inactive) and -75% (active):
Cc1ccn2c(NC3CCCCC3)c(-c3cccc(SC4CCCCC4)c3)nc2c1

Activity change, active:
Cc1cc(C)n(-c2nc(SCCN(C)C)c3c4c(sc3n2)CCCC4)n1 -77.5%
COc1cccc(C=Cc2nccc3ccccc23)c1OC -57.7%
Nc1c(S(=O)(=O)c2cccs2)c2nc3ccccc3nc2n1Cc1ccc2c(c1)OCO2 -66.7%
Cc1ccc(Cn2ccc(=O)c(OCc3c(Cl)cccc3Cl)c2C)cc1 -58.6%
CCOC(=O)C1CCN(C(=O)C2(NC(=O)Nc3ccc(F)cc3F)CCCCC2)CC1 -128%
CCOc1ccc2c(c1)[N+](C)(C)C(C)(C)C=C2C -54.6%
CC(C)(C)NC(=O)C(c1ccncc1)n1c(=O)c(-c2cc3ccccc3[nH]2)nc2ccccc21 (centres undefined) -123%
O=C(Nc1ccccc1F)c1ccc2c(c1)CCN2S(=O)(=O)c1ccccc1 -68.6%
CCOC(=O)CNC(=S)N(Cc1ccccc1)Cc1ccccc1F -56.1%

Activity change, inconclusive:
COc1ccccc1NC(=O)CN(c1ccc(C)cc1)S(=O)(=O)c1c(C)n[nH]c1C -36.5%
COc1ccc(NC(=O)Nc2ccc3nsnc3c2)cc1 -42%
CCc1ccc(C(=O)NNc2ccccc2F)cc1 -35.8%
COc1cc(-c2ncc3ccccn23)cc(OC)c1OC -41.4%
COc1ccc(-c2csc(NC(C)c3nc4cc(Cl)c(N5CCCCC5)cc4n3CCCO)n2)cc1 (centres undefined) -41.3%
C=CCc1ccc(OCC(O)CN2CCN(Cc3ccc(Cl)cc3)CC2)c(OC)c1 (centres undefined) -32.9%
CN(CC(=O)Nc1cccc(F)c1)C(=O)c1ccccc1OCCOc1ccccc1 -34.3%
CCC(=O)c1cc(F)ccc1OCC(=O)Nc1ccc2c(c1)OCCO2 -42.9%
CCc1nc2ccc(C(=O)N(C)CCN(C)C)cn2c1N(C)Cc1cc2ccccc2s1 -37.2%
CCOC(=O)c1sc(Nc2ccc(OCC)cc2)nc1C -46.6%
CSc1nc(C)c(C(=O)C[n+]2ccccc2C)cc1C#N -30.8%
COc1ccc2nc(NC(=O)C3CCCN(S(=O)(=O)c4cccc5nsnc45)C3)sc2c1 (centres undefined) -45.5%
CCc1noc(C)c1C(=O)Nc1ccc(S(=O)(=O)N2CCC(C)CC2)cc1 -40.2%
Cc1ccc2cc(CN(CCCN(C)C)C(=O)NCc3ccccc3)c(=O)[nH]c2c1C -33%
CCOc1nc(Nc2ccc(OC)c(Cl)c2)nc(N2CCN(c3ccc(OC)cc3)CC2)n1 -43.4%
Cc1cc(C(=O)Nc2ccc(Cl)cc2)n(-c2ccccc2)n1 -32.7%
COc1ccc(-c2[nH]ncc2CN2CCCC(C(=O)c3ccc(OC)cc3OC)C2)cc1 (centres undefined) -31.7%
CC(C)=CCC/C(C)=C/CNC(=O)CC1C[C@H](C(=O)N2CCOCC2)[C@@]2(C)c3[nH]c4ccccc4c3CCN2C1=O (some centres undefined) -42.9%
CC1CCCCC1NC(=O)c1cncc(Br)c1 (centres undefined) -37.7%
CC1CCCCN1C(=O)Cn1c(=O)oc2ccccc21 (centres undefined) -31.4%
CC(C)C1C(=O)N(Cc2cn(CC3CCCCC3)nn2)CCS(=O)(=O)N1Cc1ccc(-c2ccc(F)nc2)cc1 (centres undefined) -42.6%
c1cnc2c(C3NCCc4c3[nH]c3ccccc43)cccc2c1 (centres undefined) -33.7%
CSc1ncc(C(=O)Nc2ccccc2)cn1 -30.5%
COC(=O)CSc1ccc(S(=O)(=O)N2CCOCC2)cc1[N+](=O)[O-] -43.3%
O=[N+]([O-])c1ccc(Sc2ccccc2Cl)nc1 -34.9%
CCOc1ccc(-c2nc3n(c(=O)c2C#N)CCCS3)cc1 -31.7%
Oc1ccc(N2CCN(c3nc(-c4cccs4)nc4ccccc34)CC2)cc1 -43.8%
COc1ccc([C@H]2CC(=O)C=C(c3ccc4ncccc4c3)C2)cc1OC -41.2%
CCc1ccc(Nc2n[n+](-c3ccccc3)c(-c3ccc(OC)c(Br)c3)s2)cc1 -46.6%
CCOC(=O)C1=C(C)N(C)C(C)=C(C(=O)OCC)C1c1ccc(Cl)cc1 -49.4%
Cc1ccc(C(CNC(=O)Nc2ccc(Cl)cc2)N2CCN(C)CC2)cc1 (centres undefined) -36.2%
O=C(C(=Cc1ccc(F)cc1)c1ccccc1)c1ccc(O)cc1 -32%
O=C(Nc1ccnn1C1CCN(Cc2ccccc2)CC1)c1ccccc1Cl -43.6%
O=C1OC[C@@H]2CCCN2C(=O)[C@@H](CC(=O)N(CCO)Cc2ccccc2)C/C=C\C[C@@H]1Cc1ccc(F)cc1 -40.1%
Cc1cc(CSc2ccccc2)ccc1NC(=O)COc1ccccc1 -33%
Fc1ccc(C(CCCn2nnc(-c3cccnc3)n2)c2ccc(F)cc2)cc1 -34.9%
COc1cc(CNc2ccc(N3CCCC3)cc2)cc(Cl)c1OC -30.2%
COc1ccc(C2Nc3ccccc3C(=O)N2Cc2ccccc2)cc1CN1CCOCC1 (centres undefined) -46.8%
CN(C)CCNC(=O)/C(=C/c1ccc(-c2cccc([N+](=O)[O-])c2)o1)NC(=O)c1ccccc1 -32.7%
Cc1ccccc1CN1CCN(C(=O)c2ccc(F)cc2)CC1 -30.5%
CC[C@@H](C)[C@@H]1CN([C@@H](CN2CCC[C@H]2CN2C(N)=NC[C@H]2CC(C)C)C(C)C)C(=N)N1CCCC1CCCC1 -31.6%
CCc1nc2c(OCCC3CCCCC3)cccn2c1N(C)C(=O)c1ccccc1F -36.1%
CCn1c(O)c(/C=N/N=C/c2ccccc2)c2ccc(C3=NNC(=O)CC3)cc21 -33.6%
COc1cccc(NC(=O)CSc2nc3c(sc4ccccc43)c(=O)n2CCCN2CCCC2)c1 -38.8%
CC1CCc2nc(NC(=O)CN3CCN(Cc4ccc5c(c4)OCO5)CC3)sc2C1 (centres undefined) -49.1%
CNC(=O)c1ccc(NC(=O)/C=C/c2cccc(F)c2)cc1 -32%

Activity change, inactive:
O=P(CCC(F)(F)F)(CCC(F)(F)F)CCC(F)(F)F 8.87%
CCOC(=O)c1cccc(NC(=O)COc2ccc([N+](=O)[O-])cc2)c1 9.94%
COc1cccc(NC(=O)CNc2cc(S(=O)(=O)N3CCOCC3)ccc2N2CCCC2)c1 -0.866%
CCN(CC(=O)NC1CCS(=O)(=O)C1)S(=O)(=O)c1ccc(C)c(C)c1 (centres undefined) -1.84%
Cn1c(SCc2nc3ccccc3[nH]2)nnc1-c1cnccn1 1.89%
O=C(O)c1ccc(S(=O)(=O)Nc2ccc3c(c2)OCCO3)cc1 10.3%
Cc1nc(NC(=O)COC(=O)C2CC3CCCC(C2)C3=O)c(Cl)cc1Cl (centres undefined) 4.02%
CCN(C[C@H]1N[C@@](CC)(C(=O)OC)[C@H]2C(=O)N(Cc3ccccc3)C(=O)[C@@H]12)S(=O)(=O)c1ccc(OC)cc1 -18.5%
CN(CC(=O)Nc1ccccc1Cl)C(=O)c1ccc(COc2ccccc2)cc1 -21.9%
CCOC(=O)c1oc2ccccc2c1NC(=O)c1cccs1 -2.68%
CC(=O)N1CCc2cc(S(=O)(=O)N3CCc4ccccc4C3)ccc21 27.1%
CC(C)(C)NC(=O)CSc1ncnc2c1cnn2-c1ccccc1 -10.8%
COCCCN(C(=O)c1ccccc1F)c1nc(-c2ccc(OC)cc2)cs1 -17.3%
C[C@H]1NS(=O)(=O)c2ccc(Br)cc2O[C@H]1c1ccccc1 32.8%
COC(=O)C[C@H](NC(=O)Cn1cnc2c(SC)nc(N)nc21)C(=O)OC 26.1%
COc1ccc(S(N)(=O)=O)cc1C(=O)NCC(C)(C)N1CCOCC1 -0.851%
C[C@H](CO)N1C[C@H](C)[C@@H](CN(C)S(=O)(=O)c2cn(C)cn2)Oc2c(NS(=O)(=O)c3cn(C)cn3)cccc2C1=O 19%
CC(C)(O)C#Cc1ccc(CNC[C@H]2O[C@@H](n3cnc4c(N)ncnc43)[C@H](O)[C@@H]2O)s1 24.3%
CCN(CC)c1ccc2cc(C(C)=O)c(=O)oc2c1 30.4%
CC1(C(=O)NS(=O)(=O)c2ccc(C#N)cc2)CCN1C(=O)C1(c2ccc(Cl)cc2)CC1 (centres undefined) 0%
O=C(NNC(=O)c1cccc(C(F)(F)F)c1)c1ccc(-n2cnnn2)cc1 22.2%
Oc1ccc(CNc2ccccc2)c2cccnc12 9.31%
CCC/C=N/NC(=O)c1cccc(Br)c1 -14.8%
C/C(Cn1nnc([N+](=O)[O-])n1)=N\NC(=O)c1ccc(Cl)c(Cl)c1 0.791%
Nc1cccnc1Sc1cccc(Cl)c1 7.27%
CCOC(=O)CNC(=O)c1nn(-c2ccc(OCC)cc2)c(=O)c2ccccc12 -1.92%
Cc1ccc(NC(=O)C(=O)c2c(-c3ccccc3)cc3ccccn23)cc1S(=O)(=O)N1CCOCC1 -17.8%
CN(C(=O)c1ccc2c(c1)OCO2)C1(C)CCS(=O)(=O)C1 (centres undefined) 7.39%
